# Assay results from PubChem BioAssay (Tox21).
# “And” between values parts separate entries of the source, which are not always exact repeats. Equal values may be shown once. The shares of active, inactive and inconclusive entries below differ from those in the screen. For some of these results: A potency beside an inconclusive call is a rough fit, not a confirmed value. A structure can be active in one record and inactive in another. The source made the active and inactive calls. Unless noted, calls follow the shape of the dose curve; as a rule, active = well fitted curve in the direction sought with a large enough effect in the repeat runs; inconclusive = weak or mixed curves; inactive = no such curve, though single readings can be large; an effect the other way counts as inactive or inconclusive.
# Key:
# [1] = qHTS assay for identifying genotoxic compounds that show differential cytotoxicity against isogenic chicken DT40 cell lines with known DNA damage response pathways - Rev3 mutant cell line (AID 743014); details: chicken DT40 Rev3-/- viability, CellTiter-Glo, 40 h; activity, negative = cytotoxicity: at 68.4 µM (top of the series); also: nearly all actives have a fitted effect of over 55% in size; also: potency is read from the fitted curve at half-maximal effect; as to activity, negative = cytotoxicity: % is scaled to controls: 0 for no effect and ±100 for the full control effect
# [2] = qHTS assay to identify small molecule antagonists of the thyroid receptor (TR) signaling pathway - cell viability counter screen (AID 743064); details: GH3.TRE-Luc viability, CellTiter-Fluor, 24 h; activity change, negative = cytotoxic: at 70.3 µM (top of the series) unless noted; also: nearly all actives have a fitted effect of over 50% in size; also: potency is read from the fitted curve at half-maximal effect
# In short: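 GH3.TRE-Luc cells, 4 h pre-plating; cpd + T3 1 nM final; 37 °C 23.5 h; CellTiter-Fluor 30 min; fluorescence read.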
# [3] = biological target: Androgen receptor (Homo sapiens) (UniProt P10275); assay: qHTS assay to identify small molecule antagonists of the androgen receptor (AR) signaling pathway (AID 743035; active = well fitted inhibition curve with a large enough effect in the signal ratio in the repeat runs, not every such curve was filed as active; inconclusive = weak or mixed curves, or effect the other way; inactive = no such curve, though single readings can be large or run the other way; the % refers to the signal ratio; also: % is scaled to controls: 0 for no effect and ±100 for the full control effect); details: HEK293 AR-UAS-bla, R1881-stimulated, beta-lactamase FRET, 16 h
# In short: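 Steps: seed AR-UAS-bla GripTite HEK293 cells, incubate 4 h at 37C; pin in test compound, then add agonist R1881; incubate 16 h at 37C; add LiveBLAzer B/G FRET substrate, 2 h at room temperature; read fluorescence.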
# [4] = biological target: Androgen receptor (Homo sapiens) (UniProt P10275); assay: qHTS assay to identify small molecule agonists of the androgen receptor (AR) signaling pathway (AID 743036; active = well fitted activation curve with a large enough effect in the signal ratio in the repeat runs, with a control signal flat, not every such curve was filed as active; inconclusive = weak or mixed curves, or effect the other way; inactive = no such curve, though single readings can be large or run the other way; the % refers to the signal ratio; also: potency is read from the fitted curve at half-maximal effect; as to activation: % is scaled to controls: 0 for no effect and ±100 for the full control effect); details: HEK293 AR-UAS-bla GripTite, beta-lactamase FRET ratio, 16 h; activation: at 62.4 µM (top of the series) unless noted
# In short: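 AR-bla HEK293 cells, 2,000/well; 4 h preincubation 37C/5% CO2; compound (DMSO) 16 h at 37C; LiveBLAzer B/G FRET substrate 2 h RT; fluorescence intensity read-out.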
# [5] = qHTS assay to identify small molecule antagonists of the androgen receptor (AR) signaling pathway using the MDA cell line - cell viability counter screen (AID 743041; also: % is scaled to controls: 0 for no effect and ±100 for the full control effect; nearly all actives have a fitted effect of over 45% in size); details: MDA-kb2 viability, CellTiter-Fluor, 16 h, cells co-treated with R1881 androgen agonist; viability change, negative = cytotoxic: at 70.3 µM (top of the series) unless noted
# In short: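 In this qHTS counter assay, fluorescence intensity after CellTiter-Fluor addition indicated viability of MDA-kb2 AR-luc cells given compounds and R1881 for 16 h at 37C.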
# [6] = biological target: Estrogen receptor (Homo sapiens) (UniProt P03372); assay: qHTS assay to identify small molecule antagonists of the estrogen receptor alpha (ER-alpha) signaling pathway (AID 743069; active = well fitted curve in the direction sought with a large enough effect in the signal ratio in the repeat runs, not every such curve was filed as active; inconclusive = weak or mixed curves, or effect the other way; inactive = no such curve, though single readings can be large or run the other way; the % refers to the signal ratio; also: potency is read from the fitted curve at half-maximal effect; as to activity, negative = inhibition: % is scaled to controls: 0 for no effect and ±100 for the full control effect); details: HEK293 ER-alpha-UAS-bla, beta-lactamase ratio, antagonist mode; activity, negative = inhibition: at 69.4 µM (top of the series) unless noted
# In short: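 A 17beta-estradiol challenge was applied right after compound transfer to ER-alpha-UAS-bla HEK293 cells previously kept in charcoal-stripped serum. Plates stood 18 hr at 37C and 5% CO2; fluorescence was read following 2 hr FRET substrate loading at room temperature.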
# [7] = qHTS assay to identify small molecule antagonists of the estrogen receptor alpha (ER-alpha) signaling pathway - cell viability counter screen (AID 743074; calls by dose curve;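 also: HEK293 cells carrying ER-alpha-UAS-bla reporter stimulated with 17beta-estradiol; nearly all actives have a fitted effect of over 45% in size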; also: potency is read from the fitted curve at half-maximal effect)
# [8] = qHTS assay to identify small molecule antagonists of the thyroid receptor (TR) signaling pathway (AID 743065); also: nearly all actives have a fitted effect of over 55% in size; also: potency is read from the fitted curve at half-maximal effect
# In short: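 GH3.TRE-Luc rat pituitary cells carrying two TR response elements driving luciferase were plated for 4 h, given compound plus 1 nM T3 (final), and incubated 23.5 h at 37 C. ONE-Glo luminescence measured reporter inhibition; CellTiter-Fluor fluorescence tracked cytotoxicity.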
# [9] = tested on: thyroid hormone receptor (rat, GH3 cells); assay: qHTS assay to identify small molecule agonists of the thyroid receptor (TR) signaling pathway (AID 743066; calls by dose curve; also: potency is read from the fitted curve at half-maximal effect); details: GH3.TRE-Luc cells, TR agonist luciferase, 24 h; activation: at 83.9 µM (top of the series) unless noted
# [10] = biological target: Estrogen receptor (Homo sapiens) (UniProt P03372); assay: qHTS assay to identify small molecule agonists of the estrogen receptor alpha (ER-alpha) signaling pathway using the BG1 cell line (AID 743079); details: BG1Luc4E2 cells, ERE-luciferase agonist, 22 h; activation: at 70.3 µM (top of the series) unless noted; also: nearly all actives have a fitted effect of over 20% in size; also: potency is read from the fitted curve at half-maximal effect
# [11] = qHTS assay to identify small molecule antagonists of the androgen receptor (AR) signaling pathway - cell viability counter screen (AID 743033; also: potency is read from the fitted curve at half-maximal effect; nearly all actives have a fitted effect of over 45% in size); details: AR-bla HEK293 viability, CellTiter-Glo luminescence, 16 h; activity change, negative = cytotoxicity: at 58.5 µM (top of the series) unless noted
# [12] = biological target: Estrogen receptor (Homo sapiens) (UniProt P03372); assay: qHTS assay to identify small molecule agonists of the estrogen receptor alpha (ER-alpha) signaling pathway (AID 743075; calls by dose curve;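 also: HEK293 GripTite cells with ER-alpha and UAS-driven beta-lactamase reporter; potency is read from the fitted curve at half-maximal effect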)
# [13] = qHTS assay to identify small molecule antagonists of the estrogen receptor alpha (ER-alpha) signaling pathway using the BG1 cell line - cell viability counter screen (AID 743081); details: BG1Luc4E2 viability, CellTiter-Fluor, 22 h; activity change, negative = cytotoxicity: at 70.3 µM (top of the series) unless noted;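 also: compound given together with 17beta-estradiol as the ER stimulus; nearly all actives have a fitted effect of over 45% in size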; also: potency is read from the fitted curve at half-maximal effect
# [14] = qHTS assay to identify small molecule antagonists of the estrogen receptor alpha (ER-alpha) signaling pathway using the BG1 cell line (AID 743080; calls by dose curve;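 also: BG1 cells stimulated with 17beta-estradiol alongside compound; % is scaled to controls: 0 for no effect and ±100 for the full control effect; nearly all actives have a fitted effect of over 25% in size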); details: BG1Luc4E2 ERE-luciferase antagonist mode, luminescence; activity change, negative = inhibition: at 70.3 µM (top of the series) unless noted
# In short: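 BG1-Luc-4E2 cells (endogenous full-length ER-alpha, 4xERE luciferase) hormone-starved 5 days in charcoal-stripped FBS, plated 4,000/well for 24 h, then compound plus 17beta-estradiol for 21.5 h at 37 C; ONE-Glo luminescence read.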
# [15] = qHTS assay for identifying genotoxic compounds that show differential cytotoxicity against isogenic chicken DT40 cell lines with known DNA damage response pathways - Rad54/Ku70 mutant cell line (AID 743015); details: DT40 Rad54/Ku70 mutant viability, CellTiter-Glo, 40 h; activity change, negative = cytotoxicity: at 66.8 µM (top of the series); also: potency is read from the fitted curve at half-maximal effect; nearly all actives have a fitted effect of over 60% in size
# [16] = biological target: Aromatase (Homo sapiens) (UniProt P11511); assay: qHTS assay to identify aromatase inhibitors (AID 743083); details: MCF-7 aro ERE, testosterone-driven ERE luciferase, 24 h; activity, negative = inhibition: at 70.3 µM (top of the series); also: potency is read from the fitted curve at half-maximal effect; nearly all actives have a fitted effect of over 55% in size
# [17] = activity change, negative = inhibition: at 58.5 µM (top of the series) unless noted
# Tags tell the direction and shape of the fitted curve or compound fluorescence and quenching.
# Sequence of UniProt P03372 (P03372 whole entry, looked up): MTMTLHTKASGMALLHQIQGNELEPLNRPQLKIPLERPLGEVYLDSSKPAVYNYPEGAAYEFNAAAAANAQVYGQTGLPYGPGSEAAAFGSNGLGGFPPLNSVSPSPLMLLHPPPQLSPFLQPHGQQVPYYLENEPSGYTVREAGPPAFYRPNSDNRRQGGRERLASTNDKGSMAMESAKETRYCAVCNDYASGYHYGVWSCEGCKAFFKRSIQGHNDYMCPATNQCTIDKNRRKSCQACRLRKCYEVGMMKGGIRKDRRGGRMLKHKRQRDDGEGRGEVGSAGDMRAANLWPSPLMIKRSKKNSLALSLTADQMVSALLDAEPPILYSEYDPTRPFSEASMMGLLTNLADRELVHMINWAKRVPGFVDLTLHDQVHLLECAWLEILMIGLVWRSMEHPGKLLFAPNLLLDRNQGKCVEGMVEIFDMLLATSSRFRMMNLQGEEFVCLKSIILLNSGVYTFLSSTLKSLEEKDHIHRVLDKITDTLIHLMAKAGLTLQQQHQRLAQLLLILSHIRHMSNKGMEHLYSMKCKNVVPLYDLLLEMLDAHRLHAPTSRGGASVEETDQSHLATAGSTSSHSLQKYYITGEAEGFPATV
# Sequence of UniProt P10275 (P10275 whole entry, looked up): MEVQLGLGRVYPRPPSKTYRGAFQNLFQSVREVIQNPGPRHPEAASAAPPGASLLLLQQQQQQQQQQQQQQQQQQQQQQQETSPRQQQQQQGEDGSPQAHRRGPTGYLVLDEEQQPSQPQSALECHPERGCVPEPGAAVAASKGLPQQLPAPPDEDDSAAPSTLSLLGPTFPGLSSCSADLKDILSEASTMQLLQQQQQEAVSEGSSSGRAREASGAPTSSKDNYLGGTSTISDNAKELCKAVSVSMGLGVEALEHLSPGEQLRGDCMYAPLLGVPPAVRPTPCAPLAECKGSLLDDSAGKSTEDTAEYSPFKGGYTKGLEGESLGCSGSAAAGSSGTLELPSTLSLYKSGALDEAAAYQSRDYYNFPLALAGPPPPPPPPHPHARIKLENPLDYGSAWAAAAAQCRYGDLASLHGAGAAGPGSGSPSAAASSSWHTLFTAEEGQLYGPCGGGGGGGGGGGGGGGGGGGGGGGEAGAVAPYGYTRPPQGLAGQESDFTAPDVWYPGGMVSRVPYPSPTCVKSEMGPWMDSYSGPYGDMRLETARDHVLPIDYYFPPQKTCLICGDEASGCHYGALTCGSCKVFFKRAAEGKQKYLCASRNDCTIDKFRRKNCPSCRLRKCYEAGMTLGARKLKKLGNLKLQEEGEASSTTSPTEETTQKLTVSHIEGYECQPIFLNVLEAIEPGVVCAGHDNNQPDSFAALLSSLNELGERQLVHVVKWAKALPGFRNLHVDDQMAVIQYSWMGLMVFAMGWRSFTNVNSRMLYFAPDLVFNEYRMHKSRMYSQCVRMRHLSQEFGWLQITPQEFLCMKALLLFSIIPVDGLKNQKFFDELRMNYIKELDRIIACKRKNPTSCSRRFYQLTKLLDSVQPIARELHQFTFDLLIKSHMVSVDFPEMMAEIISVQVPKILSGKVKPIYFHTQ
# Sequence of UniProt P11511 (P11511 whole entry, looked up): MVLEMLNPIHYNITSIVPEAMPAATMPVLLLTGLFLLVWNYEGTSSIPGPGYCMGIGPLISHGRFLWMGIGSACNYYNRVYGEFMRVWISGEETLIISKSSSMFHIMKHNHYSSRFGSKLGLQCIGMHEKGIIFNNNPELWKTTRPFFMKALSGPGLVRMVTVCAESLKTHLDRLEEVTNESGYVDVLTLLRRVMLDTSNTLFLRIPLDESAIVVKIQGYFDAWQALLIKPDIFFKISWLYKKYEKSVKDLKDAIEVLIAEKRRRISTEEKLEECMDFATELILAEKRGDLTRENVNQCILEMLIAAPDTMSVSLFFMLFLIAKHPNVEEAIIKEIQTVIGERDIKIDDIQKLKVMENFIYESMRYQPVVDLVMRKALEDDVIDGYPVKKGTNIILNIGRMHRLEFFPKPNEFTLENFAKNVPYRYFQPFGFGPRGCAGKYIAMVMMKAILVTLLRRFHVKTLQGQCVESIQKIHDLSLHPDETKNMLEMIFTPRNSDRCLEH
smiles,measurement,setting,value
CC(C(=O)O)c1ccc(/C=C2\CCCCC2=O)cc1 (centres undefined),Potency,[1],inactive
same,Potency,[2],"inconclusive: 7.5 µM [rising, partial curve, poor fit]"
Cc1ccc(C)c(O)c1C,Potency,[1],"inconclusive: 68.6 µM [cytotoxic, single point]"
same,Potency,[3]; [17],inactive
same,Potency,[4],inactive
same,Potency,[5],inactive
same,Potency,[6],inactive
same,Potency,[7],"inconclusive: 24.5 µM [rising, full curve, poor fit]"
C/C(=C\C(C)CC(C)CC(C)C)C1CC(=O)OC1=O (centres undefined),Potency,[1],inactive
same,Potency,[8],"inconclusive: 54.5 µM [inhibitor, partial curve, poor fit]"
same,Potency,[6],"inconclusive: 24.6 µM [rising, partial curve, poor fit]"
OCc1cccnc1,Potency,[1],inactive
same,Potency,[9],inactive
same,Potency,[10],inactive
C=C[C@@]1(C)CC(=O)[C@]2(O)[C@@]3(C)[C@@H](O)CCC(C)(C)[C@@H]3[C@H](O)[C@H](OC(C)=O)[C@@]2(C)O1,Potency,[1],inactive and active: 48.6 µM
same,Potency,[11],"inconclusive: 15.1 µM [cytotoxic] and inconclusive: 7.76 µM [cytotoxic, partial curve]"
same,activation,[9],inconclusive: 2.66% [phenotype inactive]
same,Potency,[6],"inconclusive: 952 nM [activator, full curve] and inconclusive: 87.1 nM [activator, full curve]"
same,Potency,[12],"inconclusive: 6.01 µM [falling, partial curve, poor fit]"
same,Potency,[10],"inconclusive: 4.73 µM [inhibitor, full curve] and inconclusive: 8.63 µM [inhibitor, full curve]"
same,Potency,[13],"inconclusive: 26.6 µM [cytotoxic, partial curve] and inconclusive: 12.2 µM [cytotoxic, partial curve, poor fit]"
CCCCCCCCCCCCCCCC(=O)OC[C@H](O)[C@H]1OC(=O)C(O)=C1O,Potency,[1],"inconclusive: 21.7 µM [cytotoxic, partial curve]"
same,"activity change, negative = inhibition",[3]; [17],inconclusive: -25.8%
same,"activity change, negative = inhibition",[3]; at 58.5 µM (top of the series),inactive: -3.11%
same,Potency,[14],inactive
same,Potency,[13],"inconclusive: 13.3 µM [cytotoxic, single point]"
CC(S)C(C)S (centres undefined),Potency,[1],inactive
same,Potency,[4],inactive
same,Potency,[6],inactive
same,Potency,[13],inactive
CCCCCCCC/C=C\CCCCCCCC(=O)NCc1ccc(O)c(OC)c1,Potency,[1],"inconclusive: 16.8 µM [cytotoxic, partial curve]"
same,activation,[9],inconclusive: -8.5% [phenotype inactive]
CCCCCCCCCCC[C@@H](C[C@@H]1OC(=O)[C@H]1CCCCCC)OC(=O)[C@H](CC(C)C)NC=O,Potency,[1],active: 0.376 µM
same,Potency,[15],"inconclusive: 0.841 µM [cytotoxic, full curve]"
same,Potency,[6],"inconclusive: 1.69 µM [inhibitor, full curve]"
same,Potency,[13],"inconclusive: 5.96 µM [cytotoxic, full curve]"
COC(=O)c1ccc(C)cc1,Potency,[1],inactive
same,Potency,[2],inactive
same,Potency,[9],"inconclusive: 61.1 µM [activator, partial curve]"
same,Potency,[7],inactive
same,Potency,[12],"inconclusive: 0.356 µM [falling, full curve]"
same,activation,[10],inconclusive: 2.65% [phenotype inactive] [at 95 µM]
CC1(C)S[C@@H]2[C@H](NC(=O)COc3ccccc3)C(=O)N2[C@H]1C(=O)O,Potency,[1],"inactive and inconclusive: 77 µM [cytotoxic, single point]"
same,Potency,[2],"inconclusive: 15.4 µM [rising, single point]"
same,Potency,[7],inactive
CCCOC(=O)c1ccc(C(=O)OCCC)nc1,Potency,[1],inactive
same,"activity change, negative = inhibition",[3]; [17],inconclusive: -1.25%
same,Potency,[4],"inconclusive: 8.71 µM [rising, partial curve, poor fit]"
same,Potency,[10],inactive
same,Potency,[14],inactive
CN(C)c1ccc(C=O)cc1,Potency,[1],inactive
same,Potency,[9],inactive
same,Potency,[10],active: 54.5 µM
CNCC[C@H](Oc1cccc2ccccc12)c1cccs1,Potency,[1],active: 9.44 µM
same,Potency,[11],"inconclusive: 23.9 µM [cytotoxic, partial curve, poor fit]"
same,Potency,[2],active: 7.5 µM
same,activation,[9],inconclusive: -9.68% [phenotype inactive]
same,Potency,[7],"inconclusive: 26.8 µM [cytotoxic, single point]"
same,Potency,[13],"inconclusive: 7.5 µM [rising, single point]"
same,Potency,[16],"inconclusive: 33.5 µM [inhibitor, single point]"
Nc1cccc(N)n1,Potency,[1],"inconclusive: 24.3 µM [cytotoxic, partial curve, poor fit]"
same,Potency,[11],"inconclusive: 7.76 µM [cytotoxic, full curve, poor fit]"
same,Potency,[8],inactive
same,Potency,[6],inactive
